Measurements reported in article PMC4336329 (PLoS ONE, 2015).
Hit rate of the full screen: of about 310,000 compounds, about 2,200 (0.71%) showed an effect of 50% or more. Effects have a minus sign here. Some of the results follow.

The molecules below were run against human ether-à-go-go-related gene (hERG) potassium channel (human, UniProt Q12809) (assay: primary screen, population patch clamp on CHO cells stably expressing hERG).
human ether-à-go-go-related gene (hERG) potassium channel, sequence (Q12809 whole entry, looked up): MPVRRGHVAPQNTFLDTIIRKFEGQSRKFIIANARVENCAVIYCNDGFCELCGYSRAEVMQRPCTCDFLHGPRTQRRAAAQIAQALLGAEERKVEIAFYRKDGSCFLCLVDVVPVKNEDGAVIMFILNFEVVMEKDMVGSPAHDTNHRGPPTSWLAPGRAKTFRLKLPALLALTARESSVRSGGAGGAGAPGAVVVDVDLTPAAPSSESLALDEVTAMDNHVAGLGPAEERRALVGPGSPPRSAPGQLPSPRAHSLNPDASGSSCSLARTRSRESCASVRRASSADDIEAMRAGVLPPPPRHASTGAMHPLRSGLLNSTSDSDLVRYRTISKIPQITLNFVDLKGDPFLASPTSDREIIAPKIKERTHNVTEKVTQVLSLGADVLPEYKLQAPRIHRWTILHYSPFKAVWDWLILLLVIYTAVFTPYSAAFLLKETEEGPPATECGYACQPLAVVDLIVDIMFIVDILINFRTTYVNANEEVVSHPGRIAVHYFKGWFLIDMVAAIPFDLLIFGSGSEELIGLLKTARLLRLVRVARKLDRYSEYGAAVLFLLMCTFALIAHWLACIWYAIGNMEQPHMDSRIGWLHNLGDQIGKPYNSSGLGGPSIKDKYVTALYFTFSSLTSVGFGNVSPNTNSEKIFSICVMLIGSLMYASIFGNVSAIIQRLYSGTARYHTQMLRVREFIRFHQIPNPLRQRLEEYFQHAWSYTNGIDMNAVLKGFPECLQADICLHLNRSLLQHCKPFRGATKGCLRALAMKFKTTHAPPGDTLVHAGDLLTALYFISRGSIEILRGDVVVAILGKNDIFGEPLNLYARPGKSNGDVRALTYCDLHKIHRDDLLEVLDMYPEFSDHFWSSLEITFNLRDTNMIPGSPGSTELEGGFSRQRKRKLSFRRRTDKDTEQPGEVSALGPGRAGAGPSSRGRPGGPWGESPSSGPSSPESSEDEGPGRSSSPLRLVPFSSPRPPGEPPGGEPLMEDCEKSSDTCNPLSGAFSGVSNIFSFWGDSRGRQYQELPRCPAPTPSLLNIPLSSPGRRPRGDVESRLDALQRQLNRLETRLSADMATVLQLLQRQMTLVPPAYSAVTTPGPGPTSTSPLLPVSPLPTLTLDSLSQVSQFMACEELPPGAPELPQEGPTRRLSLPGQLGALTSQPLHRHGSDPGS

SMILES | hERG current change (%, negative = inhibition) at 1uM
O=C1CS/C(=N/N=C/c2ccc(OS(=O)(=O)c3ccccc3)cc2)N1 | 8.09%
Cc1ccccc1-c1nc(CS(=O)CC(=O)NCc2ccc3c(c2)OCO3)c(C)o1 (stereo not shown) | 18.5%
Cc1cccc(Cc2nnc(CCC(=O)N3CCCC(CN4CCOCC4)C3)o2)c1 (stereo not shown) | 5.12%
CCN(CC)S(=O)(=O)c1ccc(N2CCCCC2)c(NC(=O)C2=COCCO2)c1 | 9.49%
COc1cc(C2C(C#N)=C(C)NC(C)=C2C#N)cc(OC)c1OC | 14.3%
O=C(O)C1CCCCC1C(=O)Nc1ccc(Cl)cc1 (stereo not shown) | 6.02%
O=C(Cn1ccc2ccccc2c1=O)NCC(=O)N1CCN(c2ccc(F)cc2)CC1 | 8.6%
COc1ccc(S(=O)(=O)Nc2cc(C)ccc2OC)cc1C | 12.2%
Cc1ccc(CCNS(=O)(=O)c2cc3c(cc2C)NC(=O)CO3)cc1 | -10.7%
CCCCC(CC)CNC(=O)Cn1c(=O)[nH]c2ccsc2c1=O (stereo not shown) | 4.49%
COc1ccc(Nc2ncnc3ccc([N+](=O)[O-])cc23)c(OC)c1 | 9.8%
COC(=O)c1c(NC(NC(=O)C(C)(C)C)C(Cl)(Cl)Cl)sc2c1CCC2 (stereo not shown) | 24.2%
CN1CCCC(OC(=O)c2cccc(Br)c2)C1.Cl (stereo not shown) | 12.7%
Cc1ccc(N2C(=O)NC(=O)/C(=C\c3cn(CC(=O)O)c4ccccc34)C2=O)cc1 | 13.1%
O=C(Nc1ccc(N2CCN(Cc3ccccc3F)CC2)cc1)c1ccc([N+](=O)[O-])o1 | 10.1%
Cc1ccccc1C(=O)Nc1nc(=S)ss1 | 8.66%
c1ccc(C2Nc3ccccc3C3OCCCC23)cc1 (stereo not shown) | 20.1%
COc1ccccc1-c1c(-c2ccc(OCC(=O)NN)cc2O)n[nH]c1C(F)(F)F | 14.2%
COC(=O)c1cccc(C23CC4(C2)[C@H](CN(Cc2ccc(C(F)(F)F)cc2)[C@@H]4c2ccccc2)C3c2ccccc2)c1 (stereo partly shown) | -12.6%
O=C1C(NS(=O)(=O)c2cccs2)=C(N2CCN(c3cccc(C(F)(F)F)c3)CC2)C(=O)c2ccccc21 | 9.08%
O=[N+]([O-])/C=C1/CCCCCN1 | 4.5%
COc1ccc(/C=C(\NC(=O)c2ccccc2)C(=O)NCCN2CCOCC2)cc1OC | 16.4%

SMILES | hERG current change (%, negative = inhibition) at 1uM
CCOc1cc(C(c2c(C)[nH][nH]c2=O)c2c(C)[nH][nH]c2=O)ccc1OCc1ccc([N+](=O)[O-])cc1 | 1.55%
COc1ccc2c(c1)CCc1cc(C(=O)N3CCN(c4ccc(N5CCOCC5)nn4)CC3)sc1-2 | 14.2%
CC(=O)c1ccccc1OC(=O)CCN1C(=O)c2ccccc2C1=O | 14.4%
CCNc1nc(NC(C)C)nc(Oc2ccc(/C=N/O)cc2)n1 | 4.01%
CC1Sc2ccc(S(=O)(=O)N(C)Cc3ccccc3)cc2NC1=O (stereo not shown) | 9.87%
O=S(=O)(NCC1(N2CCOCC2)CCCCC1)c1ccc(F)c(F)c1F | 3.35%
O=S(=O)(c1ccc(Cl)cc1)N1CCN(C2CCN(Cc3ccccc3)CC2)CC1 | -59%
Cc1ccc(NC(=O)CN(C)C(=O)COC(=O)COc2ccc(C#N)cc2)cc1 | 3.48%
c1ccc2cc(OCc3nc4ccccc4[nH]3)ccc2c1 | 1.42%
CCOc1ccc(COC(=O)C2CC(=O)N(CCc3ccccc3)C2)cc1OC (stereo not shown) | -8.69%
CCOC(=S)SCC(=O)N1CCc2cc(OC)c(OC)cc2C1C1C(=O)CC(C)(C)CC1=O (stereo not shown) | 5.81%
COc1ccc(N(CCC(=O)NCCc2ccccc2)S(=O)(=O)c2ccc(C)cc2C)cc1 | 4.5%
CC(C)Cc1cc(CNC(=O)C2CCC(=O)N(Cc3cccc(C(F)(F)F)c3)C2)on1 (stereo not shown) | 10.2%
Cc1cc(N2C(=O)NC(=O)CC2C)c(C)cc1C(C)C (stereo not shown) | 7.98%
O=C(N/N=C/c1ccc(Br)s1)c1cccs1 | 7.1%
Cc1nc2c(sc3nc(N4CCOCC4)c4c(c32)CC(C)(C)OC4)c(-c2ccc(Cl)cc2)c1C(=O)O | 0.131%
CN1CCN(CCOc2cccc(Cl)c2)CC1.Cl | 7.74%
COc1ccc(CCNC(=O)c2cccn2C)cc1 | 15.7%
O=C(CC1Sc2ccccc2NC1=O)OCc1cc(=O)oc2cc(O)ccc12 (stereo not shown) | -6.35%
Cc1c(NC(=O)CN2CCC(C(N)=O)CC2)cccc1[N+](=O)[O-] | 7.54%
COc1ccc(Cl)c(Cn2c(NCCCO)nc3c2c(=O)n(C)c(=O)n3C)c1 | 10.9%
Cc1cc2nc(-c3cccnc3SCC(=O)NC3CC3)[nH]c2cc1C | 12.5%

SMILES | hERG current change (%, negative = inhibition) at 1uM
CC(C)c1ccccc1NC(=O)c1ccc2ncsc2c1 | 10.4%
Cc1ccccc1C([O-])=Nc1ccc[n+](-c2nc3ccccc3nc2NS(=O)(=O)c2ccccc2)c1 | 9.51%
CCOC(=O)c1c(C)[nH]c(N=Nc2ccccc2)c1C | 21.7%
Cc1ccc(S(=O)(=O)N(CC(=O)O)Cc2ccccc2F)cc1 | 6.83%
Cc1ccc2c(CN3CCCCC3)cc(=O)oc2c1 | 6.38%
Cc1c(NC(=O)CSc2nnnn2-c2ccc(F)cc2)c(=O)n(-c2ccccc2)n1C | 5.5%
O=C1NCCN/C1=C\C(=O)c1ccc(Cl)cc1 | 10.4%
C=C(C)n1c(=O)[nH]c2ccccc21 | 17.3%
Cc1nc2ccccc2c(=O)[nH]1 | 5.19%
O=C(COC(=O)c1c(F)cccc1F)NCCNC(=O)COC(=O)c1c(F)cccc1F | 1.66%
O=C(O)c1cccnc1SCc1cccc(Br)c1 | 19.1%
CC(=O)C(C)n1c(CN(C)Cc2ccccc2)nc2c1c(=O)n(C)c(=O)n2C (stereo not shown) | 5.86%
O=C(NNS(=O)(=O)c1ccc(C(=O)NC2CCCC2)cc1)c1ccncc1 | 20.9%
Cc1sc(NC(=O)c2oc3ccccc3c2C)c(C#N)c1C | 7.39%
C=CCn1c(SCc2cc(=O)n3ccsc3n2)nnc1C1CCCCC1 | 2.24%
Cc1cc(Nc2ncc(Cl)cc2Cl)n(-c2ccccc2)n1 | 0.983%
CC1CN(C(=O)c2cccc(S(=O)(=O)N3CCN(c4ccc(F)cc4)CC3)c2)CC(C)O1 (stereo not shown) | -0.796%
O=C1CC2(CCCCC2)Oc2ccc(F)cc21 | 2.95%
Cc1cccc(NC(=O)c2cccc3c2-c2ccccc2C3=O)n1 | -6.98%
CN(Cc1ccccc1)C(=O)c1ccccc1NC(=O)C1=CSCCO1 | 7.75%
Cc1cc(C)c(C)c(S(=O)(=O)NNC(=O)c2cccc(S(=O)(=O)N3CCOCC3)c2)c1C | 12%
CC(C)(C)NC(=O)CN(Cc1cccs1)C(=O)CNS(=O)(=O)c1ccc(F)cc1 | -3.38%

SMILES | hERG current change (%, negative = inhibition) at 1uM
Cn1cc(S(=O)(=O)NC2CCCCCC2)c(=O)n(C)c1=O | 15.1%
O=C(CCNS(=O)(=O)c1c(Cl)cccc1Cl)OCC(=O)c1ccccc1F | 8.77%
COc1cccc(NS(=O)(=O)c2ccc3[nH]cc(C(=O)NCCN4CCOCC4)c(=O)c3c2)c1 | 3.3%
O=c1[nH]c(=O)c2nnc(N/N=C\c3ccc(O)cc3)nc2[nH]1 | 5.59%
CN1CCCN(C(=O)c2cc3c(s2)CCCC3)CC1 | 2.27%
CCc1nc(SCC(=O)Nc2cc(C)on2)c2c(C)c(C)sc2n1 | 2.55%
C=CCNc1nc(Cl)nc(NC2CCCCC2)n1 | 15.2%
CCCCOCCCNC(=O)Cc1ccccc1OC | 13.8%
Cn1c(=O)[nH]c(=O)c2c1nc(SCCN1CCCCC1)n2CCCc1ccccc1 | -57.3%
C[C@H](NC(=O)c1ccco1)C(=O)NCCc1ccc(S(N)(=O)=O)cc1 | 13.1%
O=C(NCc1ccc(F)cc1)c1cc(S(=O)(=O)N2CCCCC2)ccc1Cl | 4.33%
Cn1c(=O)c2c(nc(N3CCCCC3)n2C)n(C)c1=O | -20.6%
Cc1ccc(NC(=O)Nc2ccc3c(c2)OCO3)cc1F | -13.5%
CN(C)S(=O)(=O)c1cccc(NC(=O)CNCc2ccccn2)c1.O=C(O)C(=O)O | 9.61%
Cc1cc(=O)n2nc(N3CCC(C(=O)NC4CCCc5ccccc54)CC3)sc2n1 (stereo not shown) | -8.07%
CCN(CC)CCn1c2c(c(SCC(=O)Nc3nccs3)nc1=O)CCCC2 | -22.6%
Cl.OCCNCc1cccc2ccccc12 | 18.1%
CC12CC3(C)CC(C)(C1)CC(C(=O)NCCc1ccc(S(N)(=O)=O)cc1)(C2)C3 | 1.76%
CC1CN(C(=O)CCc2ccccc2)C(C)CN1C(=O)CCc1ccccc1 (stereo not shown) | -20.1%
Cc1ccc(N2CC(C(=O)NCCS(=O)(=O)N3CCN(c4ccccc4F)CC3)CC2=O)cc1 (stereo not shown) | 8.65%
CC(NC(=O)C(=O)NCc1cccs1)c1ccccc1 (stereo not shown) | 15.6%
CN1C(=O)c2oc3ccccc3c(=O)c2C1c1ccccn1 (stereo not shown) | 11.7%
